# Experimental data reported in the supplement of paper PMC8728848.
# The other results are listed elsewhere or left out.
# How the values were obtained:
# Test in all cases: glycan array binding signal (z-score within array); higher = stronger binding
# Conditions in all cases: glycan notation: IUPAC condensed, linker removed
# Neu5Ac(a2-6)GalNAc = target: Neu5Ac(a2-6)GalNAc
# How it was run: (§1)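 Arrays were curated from the Consortium for Functional Glycomics database, 3228 in total, and kept only where the protein sequence was available. Binding is expressed as a within-array Z-score. This score was averaged across arrays of the same protein sequence at different concentrations or buffers and across linkers, and negative values can be read as non-binding.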
# [1] = target: Neu5Ac(a2-6)GalNAc(b1-4)GlcNAc
# How it was run: as §1
# [2] = target: Neu5Ac(a2-6)GlcNAc(b1-4)GlcNAc
# How it was run: as §1
# [3] = target: Neu5Ac(a2-6)GlcNAc(b1-4)GlcNAc(b1-4)GlcNAc
# How it was run: as §1
# Neu5Ac(a2-8)Neu5Ac = target: Neu5Ac(a2-8)Neu5Ac
# How it was run: as §1
# [4] = target: Neu5Ac(a2-8)Neu5Ac(a2-3)Gal(b1-4)Glc
# How it was run: as §1
# [5] = target: Neu5Ac(a2-8)Neu5Ac(a2-3)[GalNAc(b1-4)]Gal(b1-4)Glc
# How it was run: as §1
# [6] = target: Neu5Ac(a2-8)Neu5Ac(a2-8)Neu5Ac
# How it was run: as §1
# [7] = target: Neu5Ac(a2-8)Neu5Ac(a2-8)Neu5Ac(a2-3)Gal(b1-4)Glc
# How it was run: as §1
# [8] = target: Neu5Ac(a2-8)Neu5Ac(a2-8)Neu5Ac(a2-3)[GalNAc(b1-4)]Gal(b1-4)Glc
# How it was run: as §1
# [9] = target: Neu5Ac(a2-8)Neu5Ac(a2-8)Neu5Ac(a2-8)Neu5Ac(a2-3)[GalNAc(b1-4)]Gal(b1-4)Glc
# How it was run: as §1
# [10] = target: Neu5Ac(b2-6)Gal(b1-4)GlcNAc
# How it was run: as §1
# Neu5Ac(b2-6)GalNAc = target: Neu5Ac(b2-6)GalNAc
# How it was run: as §1
# [11] = target: Neu5Ac9Ac(a2-3)Gal(b1-3)GlcNAc
# How it was run: as §1
# [12] = target: Neu5Ac9Ac(a2-3)Gal(b1-4)GlcNAc
# How it was run: as §1
# [13] = target: Neu5Ac9Ac(a2-6)Gal(b1-4)GlcNAc
# How it was run: as §1
# [14] = target: Neu5Gc(a2-3)Gal(b1-3)GlcNAc
# How it was run: as §1
# [15] = target: Neu5Gc(a2-3)Gal(b1-3)[Fuc(a1-4)]GlcNAc
# How it was run: as §1
# Neu5Gc(a2-3)Gal(b1-4)Glc = target: Neu5Gc(a2-3)Gal(b1-4)Glc
# How it was run: as §1
# [16] = target: Neu5Gc(a2-3)Gal(b1-4)GlcNAc
# How it was run: as §1
# [17] = target: Neu5Gc(a2-3)Gal(b1-4)[Fuc(a1-3)]GlcNAc
# How it was run: as §1
# [18] = target: Neu5Gc(a2-6)Gal(b1-4)GlcNAc
# How it was run: as §1
# Neu5Gc(a2-6)GalNAc = target: Neu5Gc(a2-6)GalNAc
# How it was run: as §1
# [19] = target: Neu5Gc(b2-6)Gal(b1-4)GlcNAc
# How it was run: as §1
binder,measurement,setting,value
"Neuropilin-1 (Rattus norvegicus), Q9QWJ9 (protein) MERGLPLLCATLALALALAGAFRSDKCGGTIKIENPGYLTSPGYPHSYHPSEKCEWLIQAPEPYQRIMINFNPHFDLEDRDCKYDYVEVIDGENEGGRLWGKFCGKIAPSPVVSSGPFLFIKFVSDYETHGAGFSIRYEIFKRGPECSQNYTAPTGVIKSPGFPEKYPNSLECTYIIFAPKMSEIILEFESFDLEQDSNPPGGVFCRYDRLEIWDGFPEVGPHIGRYCGQKTPGRIRSSSGILSMVFYTDSAIAKEGFSANYSVLQSSISEDFKCMEALGMESGEIHSDQITASSQYGTNWSVERSRLNYPENGWTPGEDSYREWIQVDLGLLRFVTAVGTQGAISKETKKKYYVKTYRVDISSNGEDWITLKEGNKAIIFQGNTNPTDVVFGVFPKPLITRFVRIKPASWETGISMRFEVYGCKITDYPCSGMLGMVSGLISDSQITASNQGDRNWMPENIRLVTSRTGWALPPSPHPYINEWLQVDLGDEKIVRGVIIQGGKHRENKVFMRKFKIAYSNNGSDWKMIMDDSKRKAKSFEGNNNYDTPELRAFTPLSTRFIRIYPERATHSGLGLRMELLGCEVEVPTAGPTTPNGNPVDECDDDQANCHSGTGDDFQLTGGTTVLATEKPTIIDSTIQSEFPTYGFNCEFGWGSHKTFCHWEHDSHAQLRWRVLTSKTGPIQDHTGDGNFIYSQADENQKGKVARLVSPVVYSQSSAHCMTFWYHMSGSHVGTLRVKLHYQKPEEYDQLVWMVVGHQGDHWKEGRVLLHKSLKLYQVIFEGEIGKGNLGGIAVDDISINNHIPQEDCAKPTDLDKKNTEIKIDETGSTPGYEEGKGDKNISRKPGNVLKTLDPILITIIAMSALGVLLGAVCGVVLYCACWHNGMSERNLSALENYNFELVDGVKLKKDKLNPQSNYSEA",glycan array binding signal (z-score),Neu5Ac(a2-6)GalNAc,-0.181
same,glycan array binding signal (z-score),[1],-0.265
same,glycan array binding signal (z-score),[2],-0.287
same,glycan array binding signal (z-score),[3],-0.33
same,glycan array binding signal (z-score),Neu5Ac(a2-8)Neu5Ac,-0.194
same,glycan array binding signal (z-score),[4],-0.139
same,glycan array binding signal (z-score),[5],-0.317
same,glycan array binding signal (z-score),[6],-0.287
same,glycan array binding signal (z-score),[7],-0.336
same,glycan array binding signal (z-score),[8],-0.28
same,glycan array binding signal (z-score),[9],-0.206
same,glycan array binding signal (z-score),[10],-0.253
same,glycan array binding signal (z-score),Neu5Ac(b2-6)GalNAc,-0.211
same,glycan array binding signal (z-score),[11],-0.355
same,glycan array binding signal (z-score),[12],-0.203
same,glycan array binding signal (z-score),[13],-0.015
same,glycan array binding signal (z-score),[14],-0.246
same,glycan array binding signal (z-score),[15],-0.371
same,glycan array binding signal (z-score),Neu5Gc(a2-3)Gal(b1-4)Glc,-0.189
same,glycan array binding signal (z-score),[16],-0.303
same,glycan array binding signal (z-score),[17],-0.24
same,glycan array binding signal (z-score),[18],-0.3
same,glycan array binding signal (z-score),Neu5Gc(a2-6)GalNAc,-0.331
same,glycan array binding signal (z-score),[19],-0.215
